Our source for the cell count values is the supplement of paper PMC4604168 (melanoma cell lines).

SMILES strings stand for the structures. The list shows a part of the results. Most values come without repeats; read them as rough.
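Note: cell number obtained by counting DAPI-stained nuclei in high-throughput microscope images with image analysis software, screen run in 1,536-well plates.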

The assay has as its system WM3619. As to the kind of experiment: cell count relative to DMSO control; melanoma cells; higher = more viable cells. The conditions noted are these: library dose: low library concentration; 72 h.
In the case of `Nc1nc(F)nc2c1ncn2[C@@H]1O[C@H](CO)[C@@H](O)[C@@H]1O` [fludarabine] + O=C(O)C(=O)Nc1sc2c(c1C(=O)O)CCNC2 [TCS401] (first compound 0.2 µM, partner dose 1.66667 µM), the cell count is 120%.

Regarding `Nc1ncn([C@H]2C[C@H](O)[C@@H](CO)O2)c(=O)n1` [decitabine] + COc1cc(Nc2ncc(F)c(Nc3ccc4c(n3)NC(=O)C(C)(C)O4)n2)cc(OC)c1OC [Tamatinib] (first compound 0.1 µM, partner dose 0.4 µM), the cell count is 105%.

Consider `Nc1nc(F)nc2c1ncn2[C@@H]1O[C@H](CO)[C@@H](O)[C@@H]1O` [fludarabine] + CCc1ccc(CCOc2ccc(CC3SC(=O)NC3=O)cc2)nc1 [pioglitazone] (first compound 0.2 µM, partner dose 2 µM), for which the cell count stood at 104%.

`Nc1ccn([C@@H]2O[C@H](CO)[C@@H](O)C2(F)F)c(=O)n1` [gemcitabine] + O=C(Nc1cccc(Cl)c1)Nc1ncc(CCNc2ncnc3ccsc23)s1 [SNS314] (first compound 0.0004 µM, partner dose 0.0008 µM): the cell count worked out at 82.6%.

For `Nc1ccn([C@@H]2O[C@H](CO)[C@@H](O)C2(F)F)c(=O)n1` [gemcitabine] + CN(C)S(=O)(=O)c1ccc2c(c1)/C(=C/c1cc3c([nH]1)CCCC3)C(=O)N2 [SU6656] (first compound 0.0004 µM, partner dose 0.4 µM), the cell count came out at 86.2%.

In turn, `Nc1ncn([C@H]2C[C@H](O)[C@@H](CO)O2)c(=O)n1` [decitabine] + COc1cc(N2CCC(N3CCN(C)CC3)CC2)ccc1Nc1ncc(Cl)c(Nc2ccccc2S(=O)(=O)C(C)C)n1 [NVP-TAE684] (first compound 0.1 µM, partner dose 0.08 µM) displayed a cell count of 110%.

As for `CC(=O)O[C@@]12CO[C@@H]1C[C@H](O)[C@@]1(C)C(=O)[C@H](O)C3=C(C)[C@@H](OC(=O)[C@H](O)[C@@H](NC(=O)OC(C)(C)C)c4ccccc4)C[C@@](O)([C@@H](OC(=O)c4ccccc4)[C@H]21)C3(C)C` [Docetaxel] + CCCCCCCCCCCC1=C(O)C(=O)C=C(O)C1=O [Embelin] (first compound 0.0001 µM, partner dose 1.2 µM), the cell count was found to be 70.3%.

Compound `CC(=O)c1c(C)c2cnc(Nc3ccc(N4CCNCC4)cn3)nc2n(C2CCCC2)c1=O` [palbociclib] + O=C(Nc1cccc(Cl)c1)Nc1ncc(CCNc2ncnc3ccsc23)s1 [SNS314] (first compound 0.04 µM, partner dose 0.0008 µM) showed a cell count of 66.5%.

Take `CC(=O)O[C@@]12CO[C@@H]1C[C@H](O)[C@@]1(C)C(=O)[C@H](O)C3=C(C)[C@@H](OC(=O)[C@H](O)[C@@H](NC(=O)OC(C)(C)C)c4ccccc4)C[C@@](O)([C@@H](OC(=O)c4ccccc4)[C@H]21)C3(C)C` [Docetaxel] + N#Cc1c(O)c2c(-c3ccc(-c4ccccc4O)cc3)csc2[nH]c1=O [A769662] (first compound 0.0001 µM, partner dose 2 µM): the cell count is 79.7%.

`Nc1ccn([C@@H]2O[C@H](CO)[C@@H](O)C2(F)F)c(=O)n1` [gemcitabine] + CC(C)CCN1c2nc(Nc3cc(F)c(O)c(F)c3)ncc2N(C)C(=O)C1C [BID1870] (first compound 0.0004 µM, partner dose 0.2 µM): the cell count was 68.1%.

The compound `Nc1nc(F)nc2c1ncn2[C@@H]1O[C@H](CO)[C@@H](O)[C@@H]1O` [fludarabine] + N#Cc1c(O)c2c(-c3ccc(-c4ccccc4O)cc3)csc2[nH]c1=O [A769662] (first compound 0.2 µM, partner dose 2 µM) came in with a cell count of 98.7%.

In turn, `Nc1ccn([C@@H]2O[C@H](CO)[C@@H](O)C2(F)F)c(=O)n1` [gemcitabine] + Cc1cc([N+](=O)[O-])ccc1NS(=O)(=O)c1cc(Cl)ccc1Cl [FH535] (first compound 0.0004 µM, partner dose 1 µM) registered a cell count of 84.7%.

On to `Nc1ccn([C@@H]2O[C@H](CO)[C@@H](O)C2(F)F)c(=O)n1` [gemcitabine] + Cc1cc(N2CCOCC2)cc2[nH]c(-c3c(NC[C@@H](O)c4cccc(Cl)c4)cc[nH]c3=O)nc12 [BMS536924] (first compound 0.0004 µM, partner dose 0.2 µM), for which the cell count is 75.6%.
